Measured values taken from the supplement of paper PMC3334620.
Over roughly 33,000 sequences, “E-score (-0.5 to 0.5)” has its median near -0.035; the highest 2% begin near 0.35. This is one part of the list.

Biological target: T1, Pdr3 (UniProt P33200)
T1 sequence: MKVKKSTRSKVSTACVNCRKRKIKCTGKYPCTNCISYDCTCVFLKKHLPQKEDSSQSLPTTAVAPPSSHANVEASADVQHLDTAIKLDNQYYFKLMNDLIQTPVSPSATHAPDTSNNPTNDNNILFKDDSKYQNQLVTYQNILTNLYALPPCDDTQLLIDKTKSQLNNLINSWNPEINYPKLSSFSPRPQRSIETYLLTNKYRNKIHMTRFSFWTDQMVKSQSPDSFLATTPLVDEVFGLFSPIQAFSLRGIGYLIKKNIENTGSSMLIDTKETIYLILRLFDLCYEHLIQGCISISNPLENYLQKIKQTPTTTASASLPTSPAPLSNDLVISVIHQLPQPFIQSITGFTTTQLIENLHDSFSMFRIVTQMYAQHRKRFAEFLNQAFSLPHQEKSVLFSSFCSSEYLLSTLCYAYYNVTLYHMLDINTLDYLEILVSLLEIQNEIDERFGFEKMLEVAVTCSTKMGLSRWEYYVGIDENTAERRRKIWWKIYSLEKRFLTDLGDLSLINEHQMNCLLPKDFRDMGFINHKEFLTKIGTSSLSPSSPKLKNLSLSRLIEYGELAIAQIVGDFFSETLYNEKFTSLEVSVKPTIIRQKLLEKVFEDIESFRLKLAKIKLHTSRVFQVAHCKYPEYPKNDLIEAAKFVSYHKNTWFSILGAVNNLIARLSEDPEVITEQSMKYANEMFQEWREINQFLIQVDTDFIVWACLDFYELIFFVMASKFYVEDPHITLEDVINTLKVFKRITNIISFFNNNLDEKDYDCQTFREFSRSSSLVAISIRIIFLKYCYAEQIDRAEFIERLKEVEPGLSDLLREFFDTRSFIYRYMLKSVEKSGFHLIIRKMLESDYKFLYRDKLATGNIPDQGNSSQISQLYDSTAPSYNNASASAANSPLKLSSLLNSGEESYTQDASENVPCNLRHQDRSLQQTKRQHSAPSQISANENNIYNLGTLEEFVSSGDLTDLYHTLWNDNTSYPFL
Assay: PBM E-score (8-mer binding enrichment) (E-score (-0.5 to 0.5)); higher = stronger / more preferred TF binding; most listed sequences are background and not binding sites
Settings: protein concentration: 200 nM; construct: GST-full length
Method in brief: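 Yeast transcription factors, full-length or as DNA-binding domains, were expressed with a GST tag using PURExpress in vitro transcription/translation. At about 100-200 nM they were applied to universal all-10-mer Agilent arrays, double-stranded by primer extension on fresh or once-stripped slides. Fluorescent anti-GST detected bound protein, and masliner normalised the scans. E-scores for ungapped eight-base words, pooled with reverse complements, came from the Universal PBM Analysis Suite.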

Compared with ATGCACCA, AAGCGAAT is higher in “PBM E-score” value: -0.213 for the first, 0.0817 for the second.

Compared with CCGGTAGG, GCTTCTCA is lower in “PBM E-score” value: 0.158 for the first, -0.0707 for the second.

Going from CACTCGGC to AGTCTTTC, the “PBM E-score” value falls from 0.258 to -0.14.

Going from AACTACTC to CCTCGGGA, the “PBM E-score” value rises from 0.111 to 0.265.

Compared with TCAGAAGA, GTCTAGTA is higher in “PBM E-score” value: -0.178 for the first, -0.00944 for the second.

Compared with ATGGCTGC, ACTAGTTA is lower in “PBM E-score” value: -0.0956 for the first, -0.124 for the second.

Going from ACGGAACG to CCTAATAC, the “PBM E-score” value falls from 0.48 to -0.0552.

Going from CAGTGGCC to CCCCTTGC, the “PBM E-score” value falls from 0.0344 to -0.211.

First: CAAATAGC
Second: CTCCTGTA
The “PBM E-score” value of the first is lower: -0.113 for the first, 0.0223 for the second.

Compared with ACGACCGC, CTTATAAA is lower in “PBM E-score” value: 0.0577 for the first, 0.0576 for the second.

Compared with CGCAAACA, AGATTGCG is higher in “PBM E-score” value: 0.0537 for the first, 0.127 for the second.

Compared with GCGCGCTA, GTATCTCA is lower in “PBM E-score” value: 0.189 for the first, 0.0414 for the second.

Compared with CACCGTCA, GGTCGAAC is higher in “PBM E-score” value: 0.00596 for the first, 0.0177 for the second.

Going from GGTAGTAA to AAGGTCGA, the “PBM E-score” value rises from -0.162 to 0.0892.

Compared with TATCCGGA, CCACAACG is lower in “PBM E-score” value: 0.446 for the first, 0.0187 for the second.

Going from GCCGTAAA to CCGGGGCG, the “PBM E-score” value rises from 0.122 to 0.374.

First: CAATCGTG
Second: CATCCACG
The “PBM E-score” value of the first is lower: -0.0238 for the first, 0.0554 for the second.

First: GCCATGCA
Second: ATTCTTTA
The “PBM E-score” value of the first is higher: -0.0425 for the first, -0.225 for the second.

First: CAGAGCTG
Second: AATCAGAC
The “PBM E-score” value of the first is lower: -0.175 for the first, 0.0599 for the second.

First: CTGGGAAA
Second: AGTCATAA
The “PBM E-score” value of the first is higher: 0.0259 for the first, -0.116 for the second.

Going from GGAGAAAA to AGATGACA, the “PBM E-score” value falls from 0.0592 to -0.119.

First: TCATCTAA
Second: CCAAGTGA
The “PBM E-score” value of the first is higher: 0.0539 for the first, -0.0518 for the second.

First: ATCGCACC
Second: AAGGTTCC
The “PBM E-score” value of the first is lower: 0.0138 for the first, 0.214 for the second.

First: GGCGTACC
Second: ATTAGGAG
The “PBM E-score” value of the first is higher: 0.115 for the first, -0.0566 for the second.

First: CCGATAAC
Second: ACAGTGAT
The “PBM E-score” value of the first is higher: 0.125 for the first, -0.099 for the second.

Going from AATGCGGG to ATGGAAGC, the “PBM E-score” value falls from 0.237 to 0.179.

Compared with CAGACATC, GTTTTGAA is lower in “PBM E-score” value: 0.0243 for the first, -0.161 for the second.

First: GGCGGTAA
Second: AAACTTAG
The “PBM E-score” value of the first is higher: 0.326 for the first, -0.216 for the second.

First: ATCTGCCC
Second: TCGATACA
The “PBM E-score” value of the first is higher: 0.055 for the first, -0.0894 for the second.

First: CATAGATA
Second: TTCGCGAA
The “PBM E-score” value of the first is lower: -0.0687 for the first, 0.164 for the second.

Going from CGGAAAGC to CCTAACAA, the “PBM E-score” value falls from 0.415 to -0.19.

First: CATCGCTC
Second: CAGGCTGC
The “PBM E-score” value of the first is higher: 0.161 for the first, -0.251 for the second.

First: GTATTAAA
Second: GGATCGCA
The “PBM E-score” value of the first is lower: -0.021 for the first, 0.101 for the second.

First: CCAGGAGA
Second: CATGGAGA
The “PBM E-score” value of the first is lower: -0.158 for the first, 0.0144 for the second.

Going from CCTGATAA to CCCCTAAA, the “PBM E-score” value falls from -0.0871 to -0.183.

First: TAACGGTA
Second: TACTTTGA
The “PBM E-score” value of the first is higher: 0.0452 for the first, -0.0901 for the second.

Going from GGGTCCGA to AACCGTCA, the “PBM E-score” value falls from 0.234 to -0.081.

Going from CTGGCGAC to AACCTTCG, the “PBM E-score” value rises from -0.19 to 0.0241.

Compared with CGTCTCTA, ATATGCTA is higher in “PBM E-score” value: -0.136 for the first, -0.0437 for the second.

First: GCAAATAA
Second: AAGTAAAG
The “PBM E-score” value of the first is higher: 0.0539 for the first, -0.0735 for the second.

Going from TAGGTAGA to ATTCCCAG, the “PBM E-score” value rises from -0.131 to 0.122.

Going from CCTTCAAA to TTGTCAAA, the “PBM E-score” value falls from -0.0391 to -0.106.

Going from GTACTCAC to GCTTCTAC, the “PBM E-score” value falls from -0.0194 to -0.219.
